Some entries of the source have several records that differ or are many. The other results are left out here. There may be further records. Values that stand side by side repeat one measurement across runs, samples, wells, individuals or studies. Records carry a tag for their origin. Letters count within one entry.
Organism: Rattus norvegicus
Assay: DrugMatrix - Regimen: Daily Repeat
Type: toxicity, organism-based, Sprague-Dawley
Design: regimen Daily Repeat, gender Male, age 6-8 weeks
Conditions: in vivo, po, 0 mg/kg, 120 h, tissue Plasma, route oral GAVAGE, dose level Control, time 5 day, vehicle .5 % CMC

## Cc1ccc2cc3c(ccc4ccccc43)c3c2c1CC3 [3-METHYLCHOLANTHRENE]
  TOTAL BILIRUBIN: 0.18 mg/dL [study A] and 0.55 mg/dL [study B]

Source: ChEMBL document CHEMBL3885881, “DrugMatrix”
